Assay results as given in PubChem BioAssay (NCI).
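Five compound concentrations were applied to cells in 96-well plates for 48 hours; endpoints were derived by simple linear interpolation of the resulting dose-response curve. GI50 marks 50% less growth. TGI: concentration producing complete growth inhibition.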 Numbered stars: 1 amine (or outer) side, 2 acyl side, 3 side chain; on linkers, the order of the positions; unused ones are H or OH. Bridge positions count the residues as written; N and C are the ends. Square brackets hold non-standard residues; d marks the D form. Peptide text beside a SMILES is read from it. I, II: the chains in the order shown. Actinocin(1to9) = Cc1c2oc3c(C)ccc(C(=O)[*:2])c3nc-2c(C(=O)[*:1])c(N)c1=O; NMeV = CN[CH](C(=O)O)C(C)C; Sar = CNCC(=O)O

These compounds were tested on NCI-H322M lung (assay: NCI-60 cell line screen, 48 h).

First: Cc1nc([P+](c2ccccc2)(c2ccccc2)c2ccccc2)c(Sc2sc(-c3ccccc3)nc2[P+](c2ccccc2)(c2ccccc2)c2ccccc2)o1
Second: COc1ccc(C2=N[C@@H](Cc3ccccc3)C(=O)Nc3ccsc32)cc1
The GI50 of the first is 3.2-fold lower: 2.32 µM for the first, 7.46 µM for the second.

First: O=S(=O)(NCCCNc1nccc(-c2c(-c3ccc(O)cc3)nc3sccn23)n1)c1ccc(F)cc1
Second: O=C(CC(Cl)=C(Cl)Cl)Nc1ccccc1
The GI50 of the first is lower: 3.21 µM for the first, greater than 100 µM for the second.

With `C/C(=N\NC(=S)N1CCCCC1)c1ccccn1` the GI50 was 0.0791 µM.

Going from `Cc1nc([P+](c2ccccc2)(c2ccccc2)c2ccccc2)c(Sc2sc(-c3ccccc3)nc2[P+](c2ccccc2)(c2ccccc2)c2ccccc2)o1` to `O=C(O[C@@H](/C=C/c1ccccc1)P1(=O)N(Cc2ccccc2)[C@H]2CCCC[C@@H]2N1Cc1ccccc1)c1ccccc1`, the TGI rises from 7.63 µM to greater than 100 µM.

`NC(Cc1ccc(OCc2ccccc2)cn1)C(=O)O` (stereo unspecified) and `C=CCN(c1cc(OCc2ccccc2)c2[nH]cc(C)c2c1)S(C)(=O)=O` cannot be ordered by TGI: greater than 100 µM for the first, greater than 100 µM for the second.

First: CC(C)(C)OC(=O)NC(CCCCNC(=O)OCc1ccccc1)C(=O)NCCNc1ccc(NCCNC(=O)C(CCCCNC(=O)OCc2ccccc2)NC(=O)OC(C)(C)C)c2c1C(=O)c1ccccc1C2=O (stereo unspecified)
Second: COC(=O)C(N)CCCC(N)C(=O)NC(C)C(=O)NC(CCC(=O)NCCNCCNc1c2ccccc2nc2cccc([N+](=O)[O-])c12)C(N)=O (stereo unspecified)
The TGI of the first is higher: greater than 100 µM for the first, 58.5 µM for the second.

`CC(=O)OC1CC[C@@]2(C)C(=CC[C@@H]3[C@@H]2CC[C@]2(C)Nc4nn(S(C)(=O)=O)cc4C[C@@H]32)C1` (stereo partly specified) and `C#C[C@]1(O)CC[C@H]2[C@@H]3CCC4=C/C(=N/OCCN(C)C)CC[C@]4(C)[C@H]3CC[C@@]21C` cannot be ordered by TGI: greater than 100 µM for the first, greater than 100 µM for the second.

Compared with `CCC(C)C1NC(=O)C(NC(=O)c2c3nc4c(C(=O)NC5C(=O)NC(C(C)CC)C(=O)N6CCCC6C(=O)N(C)CC(=O)N(C)C(C(C)C)C(=O)OC5C)ccc(C)c4oc-3c(C)c(=O)c2N)C(C)OC(=O)C(C(C)C)N(C)C(=O)CN(C)C(=O)C2CCCN2C1=O` (stereo unspecified) (I: TIP[Sar][NMeV] / II: TIP[Sar][NMeV]; ester I:1-I:C, II:1-II:C; linker I:N-II:N via Actinocin(1to9); configuration not given here), `CC[C@H](C)[C@H]1NC(=O)[C@@H](NC(=O)[C@@H](CC(C)C)N(C)C(=O)C2CCCN2C(=O)[C@H](C)O)[C@@H](C)OC(=O)[C@H](Cc2ccc(OC)cc2)N(C)C(=O)[C@@H]2CCCN2C(=O)[C@H](CCCCNC(=O)OCc2ccccc2)NC(=O)[C@H](C)C(=O)[C@H](C(C)C)OC(=O)C[C@@H]1O` (stereo partly specified) is 170-fold higher in TGI: 0.0988 µM for the first, 16.7 µM for the second.

`N=C1OC(CN2CCN(c3ccccc3)CC2)CN1C(=S)Nc1ccccc1` (stereo unspecified) and `O=C(CC(=O)N1N=C(N2CCCCC2)CC1c1ccccc1)Nc1ccccc1` (stereo unspecified) cannot be ordered by TGI: greater than 100 µM for the first, greater than 100 µM for the second.

Compared with `O=S(=O)(NCCCNc1nccc(-c2c(-c3ccc(O)cc3)nc3sccn23)n1)c1ccc(F)cc1`, `COc1ccc(C2=N[C@@H](Cc3ccccc3)C(=O)Nc3ccsc32)cc1` is 3.9-fold higher in TGI: 12.6 µM for the first, 48.7 µM for the second.

Compared with `COC(=O)c1n[nH]c(C)c1N=NN(C)CCC#N`, `CC(C)c1[nH]nc(C(N)=O)c1N=NN(C)C` is higher in TGI: 54.2 µM for the first, greater than 100 µM for the second.

Compared with `CC(C)(Br)C(=O)N1CCN(C(c2ccccc2)c2ccccc2)CC1`, `CC(ON(C(c1ccccc1)C(C)C)C(C)(C)C)c1ccccc1` (stereo unspecified) is 1.7-fold higher in TGI: 34.8 µM for the first, 58.3 µM for the second.

`CCCNC(=S)/N=C/c1c(O)cc(C)oc1=O` and `COc1ccccc1NC(=S)N/N=C/c1c(C)n(C)n(-c2ccccc2)c1=O` cannot be ordered by TGI: greater than 100 µM for the first, greater than 100 µM for the second.

Compared with `Cc1coc2c1C[C@@]1(C)[C@H](CCC[C@@H]1C)[C@H]2O`, `C=C1C(=O)O[C@H]2C/C(C)=C/CC[C@@]3(C)O[C@](C)(CC[C@@H]3I)[C@@H](I)C[C@@H]12` is lower in TGI: greater than 100 µM for the first, 16.6 µM for the second.

`CCOC(=O)c1c(N)n(-c2ccccc2)c(=O)n(-c2ccccc2)c1=O` and `O=C1C[C@H](c2ccccc2)O[C@@H](c2ccccc2)C1` cannot be ordered by TGI: greater than 100 µM for the first, greater than 100 µM for the second.

`C[N+]1(CCC(=O)c2ccco2)CC2CCC(CC2)C1` (stereo unspecified) and `CC(C)=CCC[C@@H](C)/C=C/C=C(\C)C(=O)CC[C@@H]1CC[N@+]2(C)CCCC[C@H]12` cannot be ordered by TGI: greater than 100 µM for the first, greater than 100 µM for the second.

`O=C(O)c1ccc(C(=O)c2ccccc2C(=O)O)cc1C(=O)O` and `O=C(CC(Cl)=C(Cl)Cl)Nc1ccccc1` cannot be ordered by TGI: greater than 100 µM for the first, greater than 100 µM for the second.

Going from `Cc1cc(S(=O)(=O)Nc2n[nH]c(Nc3ccc(Cl)cc3)n2)c(S)cc1Cl` to `COc1cc(Nc2nc3cc(N)cc(N)c3nc2-c2ccccc2)cc(OC)c1OC`, the TGI falls from greater than 100 µM to 78.6 µM.

`CC(C)C1=CC(=O)C(C)(C2C(O)CC3(C)C4CC=C5C(CCC(OC6OC(CO)C(O)C(O)C6OC6OC(C)C(O)C(O)C6O)C5(C)C)C4(C)C(=O)CC23C)O1` (stereo unspecified) and `COc1ccc(N=Nc2c(C)c(C#N)c(=S)n(C3OC(CO)C(O)C(O)C3O)c2-c2ccccc2)cc1` (stereo unspecified) cannot be ordered by TGI: greater than 100 µM for the first, greater than 100 µM for the second.

`O=C1/C(=C\Oc2ccc(F)cc2)N2CCC1CC2` and `C=C=C(CC1CCCCC1=O)S(=O)(=O)c1ccccc1` (stereo unspecified) cannot be ordered by TGI: greater than 100 µM for the first, greater than 10 µM for the second.

First: C/C(=N\NC(=S)N1CCCCC1)c1ccccn1
Second: Cc1nc(N)c(N2CCN(C(=O)O)CC2)c(=O)[nH]1
The TGI of the first is lower: 4.13 µM for the first, greater than 100 µM for the second.

`O=C1CSCc2sccc21` and `COc1nc2[nH]ccc2c(=O)[nH]1` cannot be ordered by TGI: greater than 100 µM for the first, greater than 100 µM for the second.

`COc1cc(OC)c2c(c1)OC(c1ccccc1)CC2=O` (stereo unspecified) and `COc1ccc(/C=C(/C#N)C(N)=O)c(OC)c1` cannot be ordered by TGI: greater than 10 µM for the first, greater than 100 µM for the second.

Compound `COP(=O)(OC)C(=O)N1N(c2ccc([N+](=O)[O-])cc2)C(=O)C(C)NC1(NNc1ccc([N+](=O)[O-])cc1)P(=O)(OC)OC` (stereo unspecified) has a TGI greater than 100 µM.
